Screen size: about 110,000 compounds; about 230 (0.21%) showed an effect of 50% or more. The list shows a part of the results.

These results are taken from publication PMC6919601, “Identification of Plasmodium dipeptidyl aminopeptidase allosteric inhibitors by high throughput screening” (PLoS ONE, 2019).
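Further: 30 min substrate incubation versus DMSO and 10 µM JCP410 controls.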

In this test the target is DPAP1 (Plasmodium falciparum, UniProt Q8IIJ9). The experiment in a line: primary screen, percent inhibition; read by cleavage of a fluorogenic dipeptide substrate; higher = more effect of the substance. The arrangement: species or system P. falciparum D10 trophozoite lysates; single well.
DPAP1, sequence (Q8IIJ9 whole entry, looked up): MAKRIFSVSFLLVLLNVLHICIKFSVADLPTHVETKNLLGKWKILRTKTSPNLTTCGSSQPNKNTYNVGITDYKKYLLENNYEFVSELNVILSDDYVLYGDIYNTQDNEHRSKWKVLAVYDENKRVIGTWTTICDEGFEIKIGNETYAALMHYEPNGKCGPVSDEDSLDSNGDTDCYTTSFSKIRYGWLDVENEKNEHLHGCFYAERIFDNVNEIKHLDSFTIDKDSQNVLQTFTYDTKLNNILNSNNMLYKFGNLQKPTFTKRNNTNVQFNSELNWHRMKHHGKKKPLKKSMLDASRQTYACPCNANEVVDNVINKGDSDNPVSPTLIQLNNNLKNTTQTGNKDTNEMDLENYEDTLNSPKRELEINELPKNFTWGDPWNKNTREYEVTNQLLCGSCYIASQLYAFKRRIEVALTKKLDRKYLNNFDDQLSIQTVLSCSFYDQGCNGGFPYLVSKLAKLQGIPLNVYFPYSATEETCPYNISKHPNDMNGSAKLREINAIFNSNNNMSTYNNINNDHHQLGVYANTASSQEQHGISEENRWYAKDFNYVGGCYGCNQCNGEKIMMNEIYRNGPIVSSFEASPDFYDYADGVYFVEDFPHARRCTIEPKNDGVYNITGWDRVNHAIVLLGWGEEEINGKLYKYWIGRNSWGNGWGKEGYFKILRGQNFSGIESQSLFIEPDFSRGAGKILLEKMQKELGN
On to `CC1CCCC(NC(=O)Cn2ccc3cc(S(=O)(=O)N4CCCC4)ccc32)C1C` (centres unmarked), for which the “% Inhibition @ 10 uM” value is given as 2.45%.

`Cc1nn(CC(=O)NC2CCCC(C)C2C)c(=O)c2cc3occc3n12` (centres unmarked): the “% Inhibition @ 10 uM” value was 3%.

Consider `CCOc1ccc(/C=C2\N=C(c3ccc(Cl)cc3)OC2=O)cc1`, for which the “% Inhibition @ 10 uM” value is 1.11%.

Regarding `COc1ccc(CN2CC(C(=O)NC3CC3)CC2=O)cc1` (centres unmarked), the “% Inhibition @ 10 uM” value was -1.21%.

`COc1ccc(C2C(C(=O)Nc3cccnc3)=C(C)Nc3nc(-c4cccs4)nn32)cc1OC` (centres unmarked): the “% Inhibition @ 10 uM” value was -2.05%.

With `COc1ccc2c(OC)cc(-c3ccccc3)nc2c1`, the “% Inhibition @ 10 uM” value stood at 3.24%.

As for `CN(C)c1ccc2c(c1)OC(N)=C(C#N)C2c1ccccc1Cl` (centres unmarked), the “% Inhibition @ 10 uM” value is -5.48%.

For `Cc1ccc(C)c(OCC(=O)Nc2nonc2NC(=O)COc2cc(C)ccc2C)c1`, the “% Inhibition @ 10 uM” value amounted to 6.86%.

Consider `Cc1cc(-n2c(SCc3cc(=O)n4ccccc4n3)nc3nnc(C)c-3c2N)ccc1Cl`, for which the “% Inhibition @ 10 uM” value amounted to 1.2%.

Consider `Cc1cccc(NC(=O)c2cccc(Cl)c2)n1`, for which the “% Inhibition @ 10 uM” value is reported as -3.34%.

On to `Cc1cccc(NC(=O)CSc2ncn(-c3ccccc3)n2)c1`, for which the “% Inhibition @ 10 uM” value worked out at 19.1%.

On to `COc1ccc(C2CC(c3ccccc3)=NN2C(=O)c2cc(OC)c(OC)c(OC)c2)cc1` (centres unmarked), for which the “% Inhibition @ 10 uM” value is listed as -0.273%.

In the case of `Cc1ccc(-c2cc(C(=O)N3N=C(C(F)F)CC3(O)C(F)F)c3ccccc3n2)s1` (centres unmarked), the “% Inhibition @ 10 uM” value amounted to 1.38%.

As to `N#Cc1c2c(c(N3CCOCC3)n3c1nc1ccccc13)CCC2`, the “% Inhibition @ 10 uM” value amounted to 3.65%.

`Cc1cc(C)c(C#N)c(Nc2ccc(F)cc2)n1`: the “% Inhibition @ 10 uM” value is -1.79%.

Take `Cc1ccc(S(=O)(=O)N(C)CC(=O)Nc2ccc(Br)cc2F)cc1`: the “% Inhibition @ 10 uM” value is on record as -4.31%.

On to `COc1cccc(OC)c1C(=O)Nc1ccc(Br)cc1F`, for which the “% Inhibition @ 10 uM” value is given as -9.81%.

As to `OCCCNc1ncnc2c1c(-c1ccccc1)cn2-c1cccc(C(F)(F)F)c1`, the “% Inhibition @ 10 uM” value is 7.04%.

With `CCC(C(=O)Nc1ccc(C(C)=O)cc1)c1ccccc1` (centres unmarked), the “% Inhibition @ 10 uM” value was 6.3%.

For the compound `COc1cccc(-n2c(SCC(=O)NCCC3=CCCCC3)nc3nnc(C)c-3c2N)c1`, the “% Inhibition @ 10 uM” value is -2.17%.

For `CCOC(=O)c1ccc(-c2ccc(C=C3C(=O)NC(=O)NC3=O)o2)cc1`, the “% Inhibition @ 10 uM” value is -0.769%.

Regarding `COc1ccc(NCc2c(F)cccc2F)c(OC)c1`, the “% Inhibition @ 10 uM” value is 3.15%.

On to `CC(=O)N(CC(=O)O)CC1(c2ccc(Cl)s2)CCCCC1`, for which the “% Inhibition @ 10 uM” value stood at 2.32%.

As for `COc1cc(OC)c(C2C(C#N)=C(N)Oc3c2c(=O)oc2ccccc32)cc1Br` (centres unmarked), the “% Inhibition @ 10 uM” value was found to be 1.96%.

Consider `Cc1oc(-c2cccs2)nc1CSCC(=O)N1CCCC1`, for which the “% Inhibition @ 10 uM” value was -8.34%.

As to `CCOc1ccccc1C1NC(=O)NC(C)=C1C(=O)OC` (centres unmarked), the “% Inhibition @ 10 uM” value worked out at 3.32%.

Regarding `Cc1ccc(C(=O)OC2=C(c3ccccc3)C(=O)c3ccccc3C2=O)cc1`, the “% Inhibition @ 10 uM” value is given as -5.51%.

As to `COc1ccc(C2CC(c3ccccc3)=NN2c2ccccc2C(=O)O)cc1` (centres unmarked), the “% Inhibition @ 10 uM” value is on record as -2.59%.

Regarding `CCOc1ccc(N2C(=O)CC(N(Cc3ccc4c(c3)OCO4)C(C)=O)C2=O)cc1` (centres unmarked), the “% Inhibition @ 10 uM” value was -14.6%.

`O=C(O)c1cnc2ccc(Cl)cc2c1O`: the “% Inhibition @ 10 uM” value was 1%.

On to `COc1ccccc1-c1c(C)nn2c(NCCN3CCN(Cc4ccccc4)CC3)cc(C)nc12`, for which the “% Inhibition @ 10 uM” value was determined as 1.55%.

`O=C1NC(=O)C(=Cc2c3ccccc3cc3ccccc23)C(=O)N1`: the “% Inhibition @ 10 uM” value came out at 22.5%.

As for `CC1CCCCN1CCCn1cnc2c3ccccc3nc-2c1O` (centres unmarked), the “% Inhibition @ 10 uM” value was 4.8%.

`O=C1C(c2cc(O)c3ccccc3n2)=C(O)c2ccccc21`: the “% Inhibition @ 10 uM” value was 3.67%.

Consider `CN1C(C(=O)Nc2cccnc2)=CC(c2cccs2)=NS1(=O)=O`, for which the “% Inhibition @ 10 uM” value was -2.84%.

Consider `COc1cc(NC(=O)c2cccnc2)c(OC)cc1NC(C)=O`, for which the “% Inhibition @ 10 uM” value is given as -2.94%.

With `CN(C)CCCN(CCCN(C)C)Cc1ccccc1C(F)(F)F`, the “% Inhibition @ 10 uM” value is listed as -5.42%.

For `O=C1c2ccccc2C(=O)N1Cc1c(Cl)cccc1Cl`, the “% Inhibition @ 10 uM” value is listed as 1.72%.

For `Cc1cc2c(cc3c(=O)n(CC(=O)NCc4ccccn4)ncn32)s1`, the “% Inhibition @ 10 uM” value is -7.47%.

Turning to `C=C1C2(C(=O)Nc3cccc(C(C)=O)c3)CCC(C2)C1(C)C` (centres unmarked), the “% Inhibition @ 10 uM” value was 0.983%.

For `CN(Cc1ccco1)C(=O)c1ccc(CNS(=O)(=O)c2ccc(Br)cc2)cc1`, the “% Inhibition @ 10 uM” value is -7.16%.

Turning to `Cc1ccccc1CSCC(=O)NCc1ccco1`, the “% Inhibition @ 10 uM” value is given as -6.7%.

With `CCN1CCN(c2ncccn2)CC1`, the “% Inhibition @ 10 uM” value is reported as -1.99%.

Take `CCCc1ccc(C2C(C#N)=C(N)Oc3[nH]nc(C)c32)s1` (centres unmarked): the “% Inhibition @ 10 uM” value is given as 1.08%.

For `CCCCCc1ccc(C2=NNC(=O)CC2)cc1`, the “% Inhibition @ 10 uM” value turned out to be 4.98%.

Turning to `COc1ccc(N2CCN(C(=O)c3ccccc3C(=O)O)CC2)cc1`, the “% Inhibition @ 10 uM” value was 5.07%.

Take `Cc1ccc(Cn2ccc(NC(=O)c3cc(-c4ccco4)on3)n2)cc1`: the “% Inhibition @ 10 uM” value is 1.23%.

Take `Cc1ccc(C(C)C)c(OCC(=O)Nc2sc(C)c(C)c2C(N)=O)c1`: the “% Inhibition @ 10 uM” value came out at 13.9%.

Turning to `CC(C)(CN1CCCC1)NC(=O)c1ccc2ccccc2n1`, the “% Inhibition @ 10 uM” value is -0.0678%.

With `c1ccc2[nH]c(CCc3nc4ccccc4[nH]3)nc2c1`, the “% Inhibition @ 10 uM” value turned out to be 4.6%.

As for `Cc1ccc(S(=O)(=O)n2nc(-c3ccco3)nc2NCc2ccc(Cl)cc2)cc1`, the “% Inhibition @ 10 uM” value was determined as 3.51%.

Regarding `CC1(C)Cc2nc3sc4c(N(CCO)CCO)ncnc4c3cc2CO1`, the “% Inhibition @ 10 uM” value is reported as -4.18%.

For the compound `Cc1ccc(-n2nc(C)c3c(C(=O)NCCN4CCCCCC4)cc(C)nc32)cc1`, the “% Inhibition @ 10 uM” value is recorded as -3.1%.

For `O=C(CN1C(=O)S/C(=C/c2ccccc2F)C1=O)N1CCOCC1`, the “% Inhibition @ 10 uM” value is reported as -4.91%.

With `COc1cccc(CN(C(=O)COc2ccc(C)cc2)C2CCS(=O)(=O)C2)c1` (centres unmarked), the “% Inhibition @ 10 uM” value is recorded as -1.35%.

For `Cc1ccc(S(=O)(=O)N(CC(=O)N2CCCCCC2)c2ccccc2)cc1`, the “% Inhibition @ 10 uM” value is -7.8%.

Take `Cc1cccc2c1-c1sc(C(=O)N(CCCOC(C)C)Cc3ccco3)cc1CO2`: the “% Inhibition @ 10 uM” value is 1.7%.

Turning to `Brc1ccc(-c2ncc(-c3ccccc3)cn2)cc1`, the “% Inhibition @ 10 uM” value is -0.351%.

For the compound `CCOC(=O)N1CCN(C(=O)CSc2nnc(-c3ccc(F)cc3)o2)CC1`, the “% Inhibition @ 10 uM” value stood at 2.42%.

As to `CCCNCc1c(C(=O)O)n(Cc2ccccc2C)c2cc(OC)ccc12`, the “% Inhibition @ 10 uM” value is recorded as -8.18%.

`NC(=O)c1oc2ccccc2c1NC(=O)c1ccc(Cl)cc1`: the “% Inhibition @ 10 uM” value is on record as 1.62%.

On to `Cc1ccc(Cc2nnc(C(=O)NC(C)c3ccccc3)o2)cc1` (centres unmarked), for which the “% Inhibition @ 10 uM” value is reported as -2.23%.

As for `COc1ccc(-c2ccccc2)cc1NC1C2CC3CC(C2)CC1C3` (centres unmarked), the “% Inhibition @ 10 uM” value was determined as 3.18%.

Consider `Cc1cc(C)cc(NC(=O)Cc2cccs2)c1`, for which the “% Inhibition @ 10 uM” value was 4.03%.

In the case of `O=C(NCCO)c1ccc(-c2nnc(N3CCOCC3)c3ccccc23)cc1`, the “% Inhibition @ 10 uM” value is on record as 26.7%.
